The structures appear in SMILES notation. Whole data set: some 3,600 compounds, median “viability index relative to DMSO control” near 0.81, cut for the lowest 2% near 0.13. The list shows a part of the results.
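Further: 384-well serum-free SaLSSA: MitoTracker Red CMXRos staining with saponin lysis, high-content imaging, treated-well particle count divided by plate-mean count of DMSO wells.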

For the assay, the system named is Plasmodium falciparum NF54 stage V gametocytes. Put plainly: viability index relative to DMSO control (fraction); higher = less gametocyte killing. The note with it: 1.25 µM, incubation time: 72 h.
The molecule `CC(C)N1CCc2c(sc(NC(=O)C(C)(C)C)c2C(N)=O)C1` gave a viability index of 0.897.

`CC(=O)Nc1nc(C)c(-c2csc(Nc3ccc(Br)cc3)n2)s1` displayed a viability index of 0.322.

As for `CC(C)(C)NC(=S)NN=CC=NNC(=S)NC(C)(C)C`, the viability index came to 0.299.

For the molecule `CCc1cc(C(=O)N2CCC[C@@H]3CN(C(=O)c4ccc(F)cc4)CC[C@@H]32)n(C)n1`, the viability index was 1.21.

For the molecule `CCN1CCN(CC=Cc2ccccc2[N+](=O)[O-])CC1`, the viability index is 0.804.

`O=C(O)C(Cc1ccc([N+](=O)[O-])cc1)NS(=O)(=O)c1ccc(OC(F)(F)F)cc1` (stereo not drawn): the viability index stood at 0.813.

In turn, `CC(C)CN1C(=O)c2ccccc2C(C(=O)NC2CCCCC2)C1c1cccs1` (stereo not drawn) showed a viability index of 0.727.

With `O=C(CC1SC(=Nc2ccccc2)NC1=O)Nc1cc(Cl)ccc1Cl` (stereo not drawn), the viability index is 0.539.

Molecule `O=C(NC(=CC=Cc1ccccc1)C(=O)N1CCOCC1)c1ccc(Br)cc1` registered a viability index of 1.25.

As to `Cc1cc(I)ccc1NC(=O)CNC(=O)OCc1ccccc1`, the viability index was 1.19.

Molecule `CCOc1ccc(C(=O)Nc2cc(OC)ccc2OC)cc1` registered a viability index of 1.04.

For `COc1ccc2c(c1)N(C)C(=Cc1cccc[n+]1C)S2`, the viability index came out at 0.965.

The molecule `COc1cc(C2C3=C(CC(C)(C)CC3=O)Nc3ccccc3N2C(=O)C(C)C)cc(OC)c1OC` (stereo not drawn) displayed a viability index of 1.15.

The molecule `COc1ccc(-c2ncc([C@@H]3C[C@H]4CN(c5ccccc5)C(=O)[C@]45CCCN35)cn2)cc1` registered a viability index of 0.74.

As to `Cc1cc(C(C)(C)C)cc(S(=O)(=O)NCCO)c1C`, the viability index is 1.31.

As for `Cc1cc(N2CCN(Cc3ccccc3)CC2)n2c(nc3ccccc32)c1C#N`, the viability index was 0.757.

Take `CC(=NNC(=O)c1ccc([N+](=O)[O-])cc1)c1cccc([N+](=O)[O-])c1`: the viability index came out at 0.771.

With `COc1ccc(C2CC(=O)C3=C(C2)NC(C)=C(C(=O)OC(C)C)C3c2cccc(C)c2)cc1OC` (stereo not drawn), the viability index was determined as 0.834.

`CCc1c(C)nc2cc(-c3cc(OC)cc(OC)c3)nn2c1NCCCn1ccnc1` registered a viability index of 0.75.

With `Oc1ncnc2c1C(c1ccccc1)c1c(O)ncnc1O2`, the viability index came out at 1.03.

As for `CC(C)CCN(CCC(C)C)CC(O)Cn1c2ccc(Cl)cc2c2cc(Cl)ccc21` (stereo not drawn), the viability index is 0.614.

Molecule `O=C(Nc1ccc(-c2noc(CCc3ccccc3)n2)cc1)c1cccs1` gave a viability index of 0.66.

`CCCCCCCC[n+]1c(C)n(C)c2cc(Cl)c(Cl)cc21` registered a viability index of 0.817.

In turn, `Cc1ccc(C)c(Nc2nc(NCC3CCCO3)c3ccccc3n2)c1` (stereo not drawn) registered a viability index of 0.939.

Turning to `COc1cccc(NC(=O)Cn2c(C)c(C#N)c3ccccc32)c1`, the viability index was 0.417.

With `CC[n+]1c(C=CN(C)c2ccccc2)n(-c2ccccc2)c2ccc(-c3nc4ccccc4s3)cc21`, the viability index came to 0.163.

The molecule `O=C(NCCCN1CCOCC1)c1c[nH]c2ccc(S(=O)(=O)N3CCc4ccccc43)cc2c1=O` returned a viability index of 0.875.

Turning to `N#Cc1c(N)nc2sc(C(=O)c3ccc(F)cc3)c(N)c2c1-c1ccccc1`, the viability index amounted to 0.784.

`COc1ccc(CCNC(=O)CC(=O)NN=Cc2ccc(Br)cc2)cc1OC` gave a viability index of 0.902.

In turn, `CCN(CC)CCN(Cc1cc2cc(OC)ccc2[nH]c1=O)C(=S)Nc1cccc(Cl)c1` came in with a viability index of 0.57.

In turn, `C=CC[N+]1(CC#Cc2cccc3ccccc23)CCCCC1` yielded a viability index of 0.753.

`O=C(c1ccc(F)cc1Cl)N1CCN(c2nc(-c3cccs3)ns2)CC1` came in with a viability index of 0.988.

On to `CC(=NNC(=O)c1ccc(C)cc1)c1ccccn1`, for which the viability index was 0.294.

Turning to `CCCCN(CCCC)S(=O)(=O)c1nc(C)c(Cl)c(C)c1C#N`, the viability index was determined as 0.808.

For `Clc1cccc(Cl)c1C[n+]1ccc2ccccc2c1`, the viability index stood at 0.749.

In the case of `O=C(c1cccs1)N1CCN(c2ccc([N+](=O)[O-])c(NC3CC3)c2)CC1`, the viability index turned out to be 0.641.

Consider `CN(C)CCn1cnc2sc3c(c2c1=O)CCC(NCc1cccc(Cl)c1)C3` (stereo not drawn), for which the viability index turned out to be 1.06.

The molecule `Oc1ccc(Cl)cc1CNc1nc2ccccc2[nH]1` came in with a viability index of 1.16.

The molecule `Cc1ccc(-c2cc3nc4c(c(O)n3n2)CCCC4)cc1` registered a viability index of 0.828.

`O=[N+]([O-])c1cc(Cl)c(N2CCOCC2)cc1N1CCOCC1` yielded a viability index of 0.793.

As to `Cc1ccc(S(=O)(=O)c2c(COC(=O)c3cccc(C)c3)c(-c3ccccc3)nn2C)cc1`, the viability index stood at 0.755.

Turning to `CC=Cc1n(C)c2ccccc2[n+]1C`, the viability index amounted to 0.826.

Molecule `CCOc1ccc2[nH]c(=O)c(C(c3nnnn3CCOC)N3CCCC3)cc2c1` (stereo not drawn) displayed a viability index of 0.743.

On to `COc1ccc(/C=C(\NC(=O)c2ccccc2Br)C(=O)N2CC3CC(C2)c2cccc(=O)n2C3)cc1OC` (stereo not drawn), for which the viability index came to 0.868.

The molecule `Cc1cccc[n+]1CCCCCCCCCC[n+]1ccccc1C` had a viability index of 0.696.

`CN(C)c1cc(NC(=O)Nc2ccccc2)c2ccccc2n1` displayed a viability index of 1.44.

As to `C=CCOC(=O)C1=C(C)N=C2SCCC(=O)N2C1c1ccc(OC(=O)c2ccco2)cc1` (stereo not drawn), the viability index was 0.896.

As for `Cc1ccc(N(C)C(=O)CCNS(=O)(=O)c2cc(Br)cnc2N)cc1`, the viability index was determined as 1.06.

`CCN1CCN(c2ccc(Nc3c4ccccc4nc4ccccc34)cc2)CC1` yielded a viability index of 0.702.

In the case of `CCSc1nc2sc3c(c2c(=O)n1CC)CCN(C)C3`, the viability index came to 1.01.

On to `CC(=O)c1ccc2c3c(onc13)-c1ccccc1C2=O`, for which the viability index worked out at 0.698.

In turn, `COC(=O)C1=CNC=C(C(=O)OC)C1c1cc(OC)c(OC)c(OC)c1` had a viability index of 0.789.

As for `Cc1ccc(C)c(N2CCN(CCCNC(=O)c3ccc(CSc4nc5cnccc5[nH]4)cc3)CC2)c1`, the viability index is 0.96.

`CC(C)Cc1ccc(-c2csc(NC(=O)C3C4CCC(C4)C3C(=O)O)n2)cc1` (stereo not drawn): the viability index is 1.21.

With `NC(=NOC(=O)c1ccccc1I)c1ccccn1`, the viability index came to 1.3.

With `Cc1cc(C)n(-c2cc(NN=Cc3cc(Br)ccc3O)nc(C)n2)n1`, the viability index was 0.656.

Consider `O=C(Nc1ccc(N2CCCCC2)cc1)N1CCc2nc[nH]c2C1c1ccc(Cl)cc1` (stereo not drawn), for which the viability index was determined as 0.69.

`COC(=O)C1=C(C)NC2=C(C(=O)CC(C)(C)C2)C1c1ccc(C)o1` (stereo not drawn) came in with a viability index of 0.502.

Consider `O=C(Cn1cc([N+](=O)[O-])nc1[N+](=O)[O-])N1CCN(c2ccc(F)cc2)CC1`, for which the viability index came to 0.411.

In the case of `Cc1ccc(NC(=O)CSc2nc3cc(C(=O)NCCCOC(C)C)ccc3c(=O)n2Cc2ccco2)cc1Cl`, the viability index was 0.771.

Turning to `CC(=O)Nc1ccc(NC2=CC(=NS(=O)(=O)c3ccccc3)c3ccccc3C2=O)cc1`, the viability index was 0.398.

As to `COc1ccc(C(NC(=O)c2cccc(OC)c2)c2cc(Cl)c3cccnc3c2O)cc1` (stereo not drawn), the viability index is 0.804.

`CCN(CC)C(=O)c1ccc2c(=O)n(Cc3cccc(Br)c3)c(=S)[nH]c2c1` registered a viability index of 1.02.

Turning to `Cc1nc2sccn2c1-c1csc(Nc2ccccn2)n1`, the viability index was found to be 0.89.

As for `CCOc1cccc2oc(=O)c(C(=O)Nc3cc(C(C)(C)C)on3)cc12`, the viability index turned out to be 0.664.

In the case of `COc1cccc(C(=O)NCc2n[nH]c(=S)n2-c2ccc(Cl)c(Cl)c2)c1`, the viability index was determined as 0.453.

On to `O=C(C1CC1)N1CCc2cc(Br)cc(S(=O)(=O)N3CCCCCC3)c21`, for which the viability index is 0.803.

The molecule `CCOC(=O)c1c[nH]c2ccc(OC)cc2c1=O` came in with a viability index of 0.467.

For `CCC(Oc1ccc(C(C)(C)CC)cc1C(C)(C)CC)C(=O)Nc1ccc([N+](=O)[O-])cc1O` (stereo not drawn), the viability index amounted to 0.626.

Turning to `O=[N+]([O-])c1ccc(-c2csc(CO)n2)cc1`, the viability index was determined as 1.4.

In turn, `CNc1nc(Cl)nc(Nc2ccccc2)n1` returned a viability index of 0.803.

`CCOC(=O)C1(CC)CC(C)(C(=O)C[n+]2cccc(Br)c2)OC1=O` (stereo not drawn) returned a viability index of 1.11.

The molecule `CCCN1CCN(C(=O)C(=O)Nc2ccc3nc4n(c(=O)c3c2)CCCCC4)CC1` displayed a viability index of 0.548.

In turn, `O=C1CC(N2CCCCCC2)C(=O)N1c1ccc(N2C(=O)CC(N3CCCCCC3)C2=O)cc1` (stereo not drawn) gave a viability index of 0.94.

Molecule `O=C(C1CCC1)N1CCOc2c(cc(-c3csc4ccccc34)cc2OCCc2ccccn2)C1` had a viability index of 0.413.

As to `CCCc1ccc(OCc2nc(-c3ccc(NC(=O)c4cccs4)cc3)no2)cc1`, the viability index stood at 1.02.

Molecule `CCOCc1nnc(NC(=O)COc2ccc(Cl)cc2Cl)s1` had a viability index of 0.808.

`O=C(C(Cc1c[nH]c2ccccc12)NS(=O)(=O)c1ccc(Cl)cc1)N1CCCCC1` (stereo not drawn) showed a viability index of 0.732.

Molecule `C=CCc1cc(C=c2sc3n(c2=O)C(c2ccccc2)C(C(=O)OCC)=C(C)N=3)cc(OC)c1O` (stereo not drawn) returned a viability index of 0.77.

The molecule `CCCN(CCC)C1=CC(=O)C(C(C)(C)C)=CC1=O` displayed a viability index of 0.656.

With `CCN(CC)CCCN(Cc1cc2cc(OC)ccc2[nH]c1=O)C(=S)Nc1cccc(Cl)c1`, the viability index was determined as 0.824.

Molecule `COC(=O)CS(=O)c1ccccc1` (stereo not drawn) displayed a viability index of 1.44.

`Brc1ccc(-c2cn3c([n+]2-c2ccccc2)SCC3)cc1` yielded a viability index of 0.678.

The molecule `CCOC(=O)C1=C(C)NC2=C(C(=O)CC(c3ccc(OC)c(OC)c3)C2)C1c1ccccc1Br` (stereo not drawn) gave a viability index of 0.517.

`FC(F)(F)c1cccc(C=NNc2nc3ccccc3[nH]2)c1` registered a viability index of 0.984.

Molecule `Cc1ccc(Nc2nc(NN=Cc3ccc(-c4ccc([N+](=O)[O-])cc4)o3)nc(N3CCOCC3)n2)cc1Cl` returned a viability index of 0.427.

The molecule `O=C(O)c1c(F)cccc1Cl` returned a viability index of 0.817.

As for `CCC1CCCCN1S(=O)(=O)c1cc(Br)cc2c1N(C(=O)C1CC1)CC2` (stereo not drawn), the viability index came to 0.831.

Molecule `Fc1ccccc1CCNc1ncnc2c1[nH]c1ccccc12` yielded a viability index of 0.641.

Molecule `COc1ccc(-c2c(C(F)(F)F)nn(C)c2NC(=O)Nc2ccc(F)cc2F)cc1` showed a viability index of 0.747.

Molecule `CCCOC(=O)C1=C(C)NC2=C(C(=O)CC(c3ccc(OC)c(OC)c3)C2)C1c1ccc(Cl)c(Cl)c1` (stereo not drawn) yielded a viability index of 1.2.

`Cc1ccc(Cn2c(N3CCC(C(=O)NCc4cccs4)CC3)nc3ccccc32)cc1` gave a viability index of 0.671.

Consider `Cc1cccc(NC(=O)/C(C#N)=C/c2ccc(C)o2)c1`, for which the viability index worked out at 0.83.
